In PubChem BioAssay AID1508624 (National Center for Advancing Translational Sciences (NCATS), 2021):
Among all 48,000 compounds or so, about 120 (0.25%) were called active. Inconclusive results (about 4%) are left out. Calls come from the whole dose curve; as a rule, active = well fitted activation curve with a large enough effect; inconclusive = small, poorly fitted or top-dose-only effect, or another doubt; inactive = no such curve, though single readings can be large or run the other way. The list shows a part of the results.

Assay: Primary qHTS for Identification of Small Molecule Activators of Huntingtin-Antisense Promoter Activity; note: nearly all actives have a fitted effect of over 55% in size
Settings: HEK293 HTT-AS promoter firefly luciferase reporter (activity 0% = vehicle and -100% = no light), 24 h; series mostly up to 57.5 µM; activity change, positive = activation: at the top concentration
Summary of the method: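 Luminescence was read after Dual-Glo reagent and a 10 min room-temperature incubation. Values were normalized to vehicle (0% activity) and zero RLU (-100% activity). Reporter HEK293 cells had been exposed to compounds (up to 57.5 uM final) for 24 h.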

Activity change, positive = activation, inactive:
CCCCn1c(=O)c2oc3ccccc3c2n(CC(=O)Nc2ccc(CC)cc2)c1=O -3.13%
CCn1cc2nc(SCc3cc(C)ccc3C)n(CCc3ccccc3)c(=O)c2n1 7.07%
CCCCn1c(=N)n(CCCOc2ccc(F)cc2)c2ccccc21 -25.4%
COC(=O)c1c(C)oc2ccc(N(C(=O)c3ccncc3)S(=O)(=O)c3ccc(OC)cc3)cc12 -68.4%
O=C(Nc1cccc(C(F)(F)F)c1)c1ccc2c(c1)nnn2C1CCCC1 -18.3%
CCc1ccc(-n2c(=O)c3c4c(sc3n(Cc3ccccc3C#N)c2=O)CCC4)cc1 -0.373%
COc1ccc(S(=O)(=O)NCCc2nnc3ccc(SCC(=O)Nc4ccccc4C)nn23)cc1 -21.2%
Cc1nc(S(=O)(=O)N2CCN(c3cccc(Cl)c3)CC2)cn1C -7.38%
O=C(NCCc1ccc(Cl)cc1)c1ccc2nc(CCc3ccccc3)oc2c1 15.7%
COc1cc(OC)cc(-c2nnc(SCC(=O)c3ccc([N+](=O)[O-])cc3)o2)c1 6.26%
CC(C)Cn1c(CN2CCN(c3cccc(Cl)c3)CC2)nc2c1c(=O)[nH]c(=O)n2C -39.3%
O=C(CSc1nncn2c1cc1occc12)Nc1ccc(F)c(Cl)c1 -13.9%
COc1ccc(N(CC(=O)NCCc2ccc(C)cc2)S(=O)(=O)c2c(C)nn(C)c2C)cc1 -23.8%
COc1cc(Nc2nn(-c3ccc(OC(F)(F)F)cc3)nc2C(C)=O)cc(OC)c1 -2.65%
Cn1c(=O)c2c(nc(N3CCOCC3)n2Cc2ccccc2Cl)n(C)c1=O -9.7%
COCCCNC(=O)CCCn1c(=O)c2ccccc2n(CC(=O)Nc2ccc(C)cc2Cl)c1=O -14.2%
CC(C)Cn1c(-c2ccccc2Cl)nc2ccccc21 -0.621%
O=C(NCCc1ccc(Cl)cc1)c1nnc(Cc2ccc(Cl)cc2Cl)o1 -13%
CCOc1ccc(-c2c(C)nn3c(C)c(C(=O)NCCN(C)C)cnc23)cc1OCC -6.45%
COc1ccc(N(CC(C)C)S(=O)(=O)c2nnc(NC(=O)c3ccco3)s2)cc1 -38%
Cc1c(Cl)cccc1NC(=O)Cn1c(=O)cc(C)c2c(C)nn(-c3cccc(F)c3)c21 -8.59%
COc1ccc(NC(=O)c2cc(-c3ccc(F)cc3)no2)cc1OC -6.12%
COc1ccccc1Cc1nc2ccccc2nc1SCC(=O)Nc1c(C)cccc1C -8.52%
O=C(OCC(O)CO)c1ccccc1Nc1ccnc2c(C(F)(F)F)cccc12 (stereo not drawn) -25.2%
Cc1cc(NC(=O)c2ccco2)cc(-c2nc3ccccc3o2)c1O 2.51%
CCCNC(=O)Cn1nc(-c2ccc(C)cc2)c2cnc3ccc(CC)cc3c21 -0.267%
CCN(C(=O)CCS(=O)(=O)c1cc2c(cc1C)NC(=O)CO2)c1cccc(C)c1 -14.3%
CCn1c(C)c(C)c2cc(C(=O)N3CCN(c4ccccc4)CC3)ccc21 -11.4%
CN(C)CCN(Cc1ccccc1)S(=O)(=O)c1csc(C(N)=O)c1 9.3%
CCCCc1nn2c(=O)cc(COC(=O)c3ccc4c(c3)OCO4)nc2s1 5.61%
CCOC(=O)c1cc(-c2ccc(OC)cc2)n(CCC(=O)Nc2cccc(C)c2C)c1C -20.5%
O=C(CCCn1c(=O)[nH]c2ccc(Br)cc2c1=O)N1CCN(c2cccc(Cl)c2)CC1 -62.5%
COc1cc(OC)cc(-n2c(=O)c3ccccc3n(Cc3ccccc3C#N)c2=O)c1 3.85%
COC(=O)c1ccccc1NC(=O)Cn1nnc(-c2ccc(OC)cc2)n1 -25.9%
CCC(=O)Nc1cc(-c2cn3cccnc3n2)ccc1OC -1.06%
CC1=C(C(=O)Nc2ccccc2)C(C(C)C)n2nc(SCc3ccccc3C)nc2N1 (stereo not drawn) 3.95%
OCC(O)C(O)C(O)CO (stereo not drawn) -15.1%
COc1cc(NC(=O)c2ccc(-c3nc(CSc4ccccc4)c(C)o3)cc2)cc(OC)c1 -57.9%
CCc1ccccc1N(C)C(=O)c1nn(-c2ccc(OC)cc2)c(=O)c2c1c1ccccc1n2C -3.5%
CCOc1ccc(CNc2cc(C)nc3nc(-c4cccc(C)c4)nn23)cc1OC 3.87%
Cc1cccc(NC(=O)c2ccc3oc(=O)c(S(=O)(=O)c4ccc(F)cc4)cc3c2)c1C -3.38%
CC1CCc2c(sc3nnn(Cc4ccccc4Cl)c(=O)c23)C1 (stereo not drawn) -9.64%
CCOc1ccc(S(=O)(=O)c2cc3cccc(OCC)c3oc2=O)cc1 6.25%
CCOc1ccccc1Oc1ncnc2c1oc1ccccc12 -19.6%
CCOc1ccccc1CNCc1c(C(=O)O)n(Cc2ccccc2)c2cc(OC)ccc12 -10.4%
CCOc1ccccc1C1C(C(=O)Nc2ccccc2)=C(C)Nc2nc(-c3ccccc3)nn21 (stereo not drawn) -17.7%
COc1ccccc1OCc1nc2ccccc2n1Cc1ccccc1 0%
CCOc1ccccc1NCc1nnc2n1CCCCC2 -6.38%
CC(C)NC(=O)CSc1cn(CC(=O)N2CCCCCC2)c2ccccc12 -19.4%
Cc1ccc(-c2nnc3c4ccccc4c(-c4ccccc4)nn23)cc1 -12%
Cc1ccc(NCc2cc3cc4c(cc3n(CC(=O)Nc3ccc(C)cc3)c2=O)OCCO4)cc1 8.24%
COc1ccc(N2CCN(C(=O)c3cnc(N4CCOCC4)c4ccccc34)CC2)cc1 -26.7%
CCc1ccc(-c2nc(CS(=O)CC(=O)NCc3ccc(F)cc3)c(C)o2)cc1 (stereo not drawn) -44.2%
Cc1ccc(Cl)cc1NC(=O)CN1C(=O)c2ccccc2Sc2ncccc21 -19.7%
Cc1ccc(CNS(=O)(=O)c2c(C)nc3sc(C)cn3c2=O)cc1 -19.2%
COc1ccc(CCNC(=O)c2ccc3c(c2)nc2n3CCCCC2)cc1OC -26.3%
CCCn1cnc2cc(NC(=O)c3cc(OC)c(OC)c(OC)c3)ccc21 -4.74%
Cc1cccc(N2CCN(Cc3nnc(-c4cccc(Br)c4)o3)CC2)c1C 0.781%
CC(=O)c1ccc(NC(=O)c2nc(-c3ccccc3)n(-c3ccc(C)cc3)n2)cc1 -16.8%
CCCOC(=O)c1cccc(NC(=O)CSc2nnc3cc(C)c4ccccc4n23)c1 -18.1%
COc1ccccc1NC(=O)Cn1c(=O)oc2cc(S(=O)(=O)NCc3ccccc3)ccc21 -20.2%
O=C(NCc1cccc(Cl)c1)C1CCCN(c2nn3cc(-c4ccc(F)cc4)nc3s2)C1 (stereo not drawn) -70.2%
Cc1ccc(Cn2c(=O)n(Cc3ccc(C(=O)NC4CCN(Cc5ccccc5)CC4)cc3)c(=O)c3ccccc32)cc1 -16.9%
CCc1cccc(NC(=O)C2CCCN2S(=O)(=O)c2ccc3nc(-c4ccccc4)[nH]c3c2)c1 (stereo not drawn) -27.5%
CC(=O)c1ccc(NC(=O)CCn2cccn2)cc1 -0.505%
O=c1c(-c2ccccc2)c1-c1ccccc1 -85.9%
CN1C(=O)Cc2cc(S(=O)(=O)NCc3ccccc3Cl)ccc21 -9.25%
O=C(c1ccc(Br)cc1)N(Cc1ccco1)c1ccccn1 6.29%
Cc1ccc(-n2c(C)nc3c(cnn3-c3ccccc3)c2=O)cc1 -9.79%
CCc1ccc(CNC(=O)c2cccc(-n3c(C)nc4cccnc43)c2)cc1 -28.3%
CCCc1ccc(OCc2ccc(C(=O)Nc3ccccc3C(=O)OC)o2)cc1 19.2%
CCc1ccc(NC(=O)Cn2c(=O)n(-c3cccc(OC)c3)c(=O)c3c(C)c(C(=O)N(C)C)sc32)cc1 3.74%
Cc1ccc2oc(C(=O)N3CCC(c4nc5ccccc5s4)CC3)c(C)c2c1 -12.2%
COc1ccc(C)cc1NC(=O)c1nnn(CC(=O)Nc2c(C)cccc2C)c1N -2.87%
Cc1ccc(C)c(S(=O)(=O)c2nnn3c2nc(NC2CCCC2)c2sccc23)c1 -49.5%
CCc1cccc(NC(=O)c2cc3c(=O)oc4ccc(C)cc4c3s2)c1 -7.04%
COc1ccc(CNC(=O)C(CC(C)C)NS(=O)(=O)c2ccc3c(c2)oc(=O)n3C)cc1 (stereo not drawn) -13.3%
Cc1ccc(S(=O)(=O)c2cn(Cc3ccccc3)c3cc(N4CCCC4)c(F)cc3c2=O)c(C)c1 -8.8%
CSc1nnc(NC(=O)c2cc(=O)c3cc(C)c(C)cc3o2)s1 1.04%
CCOc1c(CNCCSc2nnnn2C)cccc1OC 17.5%
Cc1cccc(C)c1NC(=O)C(=O)NCC(c1ccc2c(c1)OCO2)N1CCN(C)CC1 (stereo not drawn) -8.64%
COc1ccc(OC)c([C@@H]2Nc3ccc(C(=O)O)cc3[C@@H]3C=CC[C@@H]32)c1 -5.88%
Cc1cc(C)n(C(C)CC(=O)Nc2ccc(Cl)cc2C)n1 (stereo not drawn) -7.36%
COc1cccc(CN2C(=O)C3(SCC(=O)N3c3ccc(C)c(Cl)c3)c3ccccc32)c1 (stereo not drawn) -28.6%
CCOC(=O)c1cc(-c2ccc(C)cc2)n(CCCC(=O)Nc2cc(C)ccc2C)c1 -31.5%
CC[C@@]1(O)C(=O)OCc2c1cc1n(c2=O)Cc2cc3c(CN(C)C)c(O)ccc3nc2-1
Cc1cccc(C(=O)n2nc(C)c(S(=O)(=O)N3CCOCC3)c2C)c1 -19.7%
CCCCC(=O)N1CCc2cc(OC)c(OC)cc2C1COc1ccc(C(=O)OCC)cc1 (stereo not drawn) -25.8%
CCOc1ccc(Sc2cc(C(=O)NCc3ccc(C)cc3)c3ccccc3n2)cc1 -0.564%
CCOc1ccccc1NS(=O)(=O)c1cc2[nH]c(=O)c(=O)[nH]c2cc1C -11%
COc1ccc(Cn2ccc3nc(C)c(C(=O)Nc4cc(OC)c(OC)c(OC)c4)cc3c2=O)cc1 -19.6%
COc1ccc(-c2nc3n(n2)C(c2ccccc2OC)C(C(=O)Nc2cccnc2)=C(C)N3)cc1 (stereo not drawn) -7.41%
CCOc1ccccc1NC(=O)c1c2c(nc3ccccc13)C(=O)N(C1CCCCC1)C2 -44.2%
CCOc1ccc(C(=O)Nc2ccc3oc(-c4ccc(C)cc4C)nc3c2)cc1Br 1.02%
CCOc1ccc(NC(=O)Cn2c(=O)n(CCCCC(=O)NCCc3ccc(Cl)cc3)c(=O)c3ccccc32)cc1 -1.11%
CCc1ccccc1NC(=O)CC1NCCNC1=O (stereo not drawn) -6.73%
O=C(C1CCC(CNS(=O)(=O)c2ccc(Br)s2)CC1)N1CCN(c2ccc(F)cc2)CC1 (stereo not drawn) -41.2%
Cc1cc(Nc2cc(CN3CCOCC3)c3nc(C)c(Cc4ccc(Cl)cc4F)n3n2)n[nH]1 -24.6%
